This note sets out measurements from the antibiotic and cytotoxicity screens of Wong et al. (2023).

This is one part of the list.

In the assay the test system is HepG2. The assay is described as follows: cytotoxicity call (relative viability < 0.9). The settings on record: 10 µM.
As for `O=C1N[C@@H](Cc2c[nH]c3ccccc23)COC(=O)[C@@H](Cc2ccc(F)cc2)CCC=CC[C@H]1CC(=O)N(CCO)Cc1ccccc1`, the cytotoxicity call is “inactive”.
With `N[C@H](CSCSC[C@H](N)C(=O)O)C(=O)O` the entry was “inactive”.
Regarding `CN(C)CC(=O)N[C@H]1CC[C@@H](CCNC(=O)C2CCC2)O[C@@H]1CO`, the cytotoxicity call was “inactive”.
With `C[C@@H]1CN([C@@H](C)CO)C(=O)c2cccc(NC(=O)C3CC3)c2O[C@@H]1CN(C)Cc1ccc2c(c1)OCO2` the entry was “inactive”; with `NNc1ccc2[nH]c(=O)[nH]c2c1`, “inactive”; with `C[N+](C)(CCOc1ccccc1)Cc1ccccc1.O=C([O-])c1cc2ccccc2cc1O`, “inactive”.
Turning to `Cc1ccc(S(=O)(=O)N(C)C[C@@H]2Oc3ccc(NS(=O)(=O)c4ccc(F)cc4)cc3CC(=O)N([C@@H](C)CO)C[C@@H]2C)cc1`, the cytotoxicity call is “inactive”.
The same measure for `C[C@@H]1CN([C@@H](C)CO)S(=O)(=O)c2ccc(-c3cccc(C(=O)N(C)C)c3)cc2O[C@H]1CN(C)C(=O)Cc1ccccn1`: “inactive”.
With `C[C@H]1CN([C@@H](C)CO)C(=O)c2cc(NC(=O)Nc3ccc(C(F)(F)F)cc3)ccc2O[C@@H]1CN(C)C(=O)Nc1ccc(C(F)(F)F)cc1`, the cytotoxicity call is “inactive”.
Take `C[C@]12NC(=O)N[C@H](c3ccccc3O1)[C@H]2CO`: the cytotoxicity call is “inactive”.
The same measure for `C(=N\n1cnnc1)/c1ccco1`: “inactive”; for `C[C@H](CO)N1C[C@H](C)[C@H](CN(C)Cc2ccc(C(=O)O)cc2)Oc2c(NS(=O)(=O)c3cn(C)cn3)cccc2C1=O`: “inactive”; for `C[C@@H]1CCCCO[C@@H](CN(C)C(=O)Nc2ccc(F)cc2)[C@H](C)CN([C@@H](C)CO)C(=O)c2cc(NC(=O)Cc3ccccc3)ccc2O1`: “inactive”.
